Test results from the RNAGym collection of RNA variant scans (doi:10.1073/pnas.2313332121).
This sample is rich in variants without activity.

B1: TPR 5TU (parent)
chain: GGAUCUUCUCGAUCUAACAAAAAAGACAAAUCUGCCACAAAGCUUGAGAGCAUCUUCGGAUGCAGAGGCGGCAGCCUUCGGUGGCGCGAUAGCGCCAACGUUCUCAACUAUGACACGCAAAACGCGUGCUCCGUUGAAUGGAGUUUAUCAUG

Variants of: B1
Assay: polymerase ribozyme fitness, log enrichment relative to wild type (log ratio); higher = more active; in vitro selection for triplet polymerase activity
Method in brief: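 To select mutant libraries of each subunit of a heterodimeric triplet polymerase ribozyme, built by PCR and transcribed, each was annealed with a biotinylated primer, partner subunit and triplets, then incubated frozen at −7 °C. Extended constructs were gel-excised, captured on streptavidin beads and amplified by RT-PCR, in one round carried out in triplicate. Illumina sequencing of input and output libraries kept genotypes with ≥10 input reads and ≥1 read per output. Fitness is the base-2 logarithm of genotype enrichment relative to wild-type enrichment, from inverse-variance-weighted replicate averages.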

Variant | polymerase ribozyme fitness (log ratio)
GGAUCUUCUCGAUCUAACAAAAAAGACAAAUAUGCCACAAAGCUGAAGAGCAUCUUCGGAUGCAGAGGCGGCAGCCUUCGGUGGCGCGAUAGCGCCAAGGUUGUCAACUAUGACACGCAAAACGCGCGCUCCGUUGAAUGGAGUUUAGCAUG [C32A U45G G46A C99G C103G U127C U148G] | ≤ -4.2
GGAUCUUCUCGAUCUAACAAAAAAGACAAAUAUGCCACAAAGCUUGAGAGCAGCUUCGGAUGCAGAGGCGGCAGCCUUCGGUGGUGCGAUAGCGCGAACGUUCUCAACUAUGACACGCAAAACGCGUGCUCCGUUCAAUGGAGUUUAUCAUG [C32A U53G C85U C96G G136C] | ≤ -4.2
GGAUCUUCUCGAUCUAACAAAAAAGACAAAUAUGCCACAAAGCUUGAGAGCAUCAUCGGAUGCAGAGGCGGCAGCUUUCGGUGGCGCGGUAUCGCCAACGUUCUCAACUAUGACACGCAAAACGCGUGCUCCGUGGAAUGGAGUUUAUCAUG [C32A U55A C76U A89G G92U U135G] | ≤ -4.2
GGAUCUUCUCGAUCUAACAAAAAAGACAAAUAUGCCACAAAGCUUGAGAGCAUCUACUGAUGCAGAGGCGGCAGCCUUCGGUGGCGCGAUUGCGCCAACGUUCUCAACUAUGACACGCAAAACGCGUGCUCCGUUGAAUGGAGUUUAUCAUG [C32A U56A G58U A91U] | ≤ -4.2
GGAUCUUCUCGAUCUAACAAAAAAGACAAAUAUGCCACAAAGCUUGAGAGCAUCUUCGGAAGGAGUGGCGGCAGCCGUCGGUGGCGCGAUAGCGCCAACGUUCUCAACUAUGACACGCAAAACGCGUGCUCCGUUGAAUGGAGUUUAUCAUG [C32A U61A C63G A66U U77G] | ≤ -4.2
GGAUCUUCUCGAUCUAACAAAAAAGACAAAUAUGCCACAAAGCUUGAGAGCAUCUUCGGAAGCAGAGGCGGCAGCCUUCGCAGGCGCAAUAGCGCAAACGUUCUCAAUUAUGACACGCAAAAGGCGUGCUCCGUUGAAUGGAGUUUAUCACG [C32A U61A G81C U82A G88A C96A C108U C123G U151C] | ≤ -4.2
GGAUCUUCUCGAUCUAACAAAAAAGACAAAUAUGCCACAAAGCUUGAGAGCAUCUUCGGAGGCAGAGGCGGCAGCCUUCGGAGGCGCGAUAUCGCCAAGGUUCUCAACUAUGACACGCAAAACGCGUGCUCCGUUGAAUGGAGUUUAUCAUG [C32A U61G U82A G92U C99G] | ≤ -4.2
GGAUCUUCUCGAUCUAACAAAAAAGACAAAUAUGCCACAAAGCUUGAGAGCAUCUUCGGAUGCAGAGGCGGCAGCCGUCGGUGGCGCAAUAGCGCCAACGUUCUCAACUAUGACACGCAAAACGCCUGCUCCGUUGAAUGGAUUUUAUCAUG [C32A U77G G88A G126C G143U] | ≤ -4.2
GGAUCUUCUCGAUCUAACAAAAAAGACAAAUGUGCCACAAAGCUUGAGAGCAUCUUCGGAUGCAGAGGCGGCAGCCUUCGGUGGCGCGAUAGCGCCAACGUUCUCAACUAUGACACGCAAAACGCGUGCUCCGUUGAAUGGAGUUUAUCAUG [C32G] | -3.19
GGAUCUUCUCGAUCUAACAAAAAAGACAAAUGUGCCCCAAAGCUUGGGAGCAUCUUCGGAUGCAGAGGCGGCAGCCUUCGGUGGCGCGAUAGCGCCCACGUUCUCAACUAUGACACGCAAAACGCGUGCUCCGUUGAAUGGAGUGUAUCAUG [C32G A37C A47G A97C U145G] | ≤ -4.2
GGAUCUUCUCGAUCUAACAAAAAAGACAAAUGUGCCCCAAAGCUUGAGAGCAUCUUCGCAUGCAGAGGCGGCAGGAUUCGGUGGCGCGAUAGCGCCUACGUUCUCAACUAUGAGACGCAAAACGCGUGCUCCGUUGAAUGGAGUUUAUCAUG [C32G A37C G59C C75G C76A A97U C114G] | ≤ -4.2
GGAUCUUCUCGAUCUAACAAAAAAGACAAAUGUGCCCCAAAGCUUGAGAGCAUCUUCGGAUGCAGAGGCGGCAGCCUUCGGUGGCGCGAUAGCGCCAACGUUCUCAACUAUGACACGCAAAACGCGUGCUCCGUUGAAUCGAGUUUAUCAUG [C32G A37C G140C] | ≤ -4.2
GGAUCUUCUCGAUCUAACAAAAAAGACAAAUGUGCCGUAAAGCUUGAGAGCAUCUACGGAUGCAGAGGCGGCAGCCUUCGGUGGCGCGAUAGCGCCAACGUUCUCAACUAUGACACGCCAAACGCGUGCUCCGUUGAAUGGAGUUUAUCAUG [C32G A37G C38U U56A A119C] | ≤ -4.2
GGAUCUUCUCGAUCUAACAAAAAAGACAAAUGUGCCGCAAAGCUUGAGAGCAUCUUCGUUUGCAGAGGCGGCAGCCAUCGGUGGCGCGAUAGGGCCAACGUGCUCAACUAUGACACGCAAAACGCGUGCUCCCCUGAAUGGAGUAUAUCAUG [C32G A37G G59U A60U U77A C93G U102G G133C U134C U145A] | ≤ -4.2
GGAUCUUCUCGAUCUAACAAAAAAGACAAAUGUGCCACCAAGCUUGAGAGCAUCUUCGGAUGCAGAGGCCGCAGGCUGCGGUGGCGCGAUAGUGCCAACGUUCUCAACUAUGACACGCAAACCGUGUGCUCCGUUGAAUCGAGUUUAUCAUG [C32G A39C G70C C75G U78G C93U A122C C125U G140C] | ≤ -4.2
GGAUCUUCUCGAUCUAACAAAAAAGACAAAUGUGCCACGAAGCUUGAGAGCAUCUUCUGAUGCAGAGGCGGCAGCCUUCGGUGGCGCGAUAGCGCCAACGUUCUCAACUAUGACACGCAAAACGCGUGCUCCGUUGAAUGGACUUUAUCAUG [C32G A39G G58U G143C] | -4.1
GGAUCUUCUCGAUCUAACAAAAAAGACAAAUGUGCCACACAGCUUGAGGGCAUCUUCGGAUGCAGGGGCGGUAGCCUUCGGUGGCGCGAUAGCGCCAACGUUCUCAACUAUGACACGCAAAUCGCGUGCGCCGUUGAAUGGAGUUUAUCAUG [C32G A40C A49G A66G C72U A122U U130G] | ≤ -4.2
GGAUCUUCUCGAUCUAACAAAAAAGACAAAUGUGCCACAGAGCUUGAGAGCAUCUUAGGAUGCAGAGGCGGCAGCCUUCGGUUGCGCGAUAGCGCCAACGUUCUCAACUUUGACACGCAAAACGCGUGCUCCGUUGAAUGGAGUUUAUCAUG [C32G A40G C57A G83U A110U] | ≤ -4.2
GGAUCUUCUCGAUCUAACAAAAAAGACAAAUGUGCCACAUAGCUUGAGAGCAUCUUCGGCUGCAGAGGCGGCAGCCUUCGGUGGCGCGAUAGCGCCAACGUUCUGAACUAUGACACGCAAAACGCGUGCUCCGUCGAAUGGAGUUUAUCAUG [C32G A40U A60C C105G U135C] | ≤ -4.2
